Measurements published in publication PMC6338798.
Results are given in words; binding and its absence hold for the method and conditions named. Binding seen in cells or lysates may run through a third protein. Some results given as binding are weak or reduced against the parent protein; the word gives no strength. For part of these data: Where a sequence is shown, tags or fusion partners need not be part of it.

By UniProt entry, the sequences of proteins in these tests, tags left out.
UniProt P35222: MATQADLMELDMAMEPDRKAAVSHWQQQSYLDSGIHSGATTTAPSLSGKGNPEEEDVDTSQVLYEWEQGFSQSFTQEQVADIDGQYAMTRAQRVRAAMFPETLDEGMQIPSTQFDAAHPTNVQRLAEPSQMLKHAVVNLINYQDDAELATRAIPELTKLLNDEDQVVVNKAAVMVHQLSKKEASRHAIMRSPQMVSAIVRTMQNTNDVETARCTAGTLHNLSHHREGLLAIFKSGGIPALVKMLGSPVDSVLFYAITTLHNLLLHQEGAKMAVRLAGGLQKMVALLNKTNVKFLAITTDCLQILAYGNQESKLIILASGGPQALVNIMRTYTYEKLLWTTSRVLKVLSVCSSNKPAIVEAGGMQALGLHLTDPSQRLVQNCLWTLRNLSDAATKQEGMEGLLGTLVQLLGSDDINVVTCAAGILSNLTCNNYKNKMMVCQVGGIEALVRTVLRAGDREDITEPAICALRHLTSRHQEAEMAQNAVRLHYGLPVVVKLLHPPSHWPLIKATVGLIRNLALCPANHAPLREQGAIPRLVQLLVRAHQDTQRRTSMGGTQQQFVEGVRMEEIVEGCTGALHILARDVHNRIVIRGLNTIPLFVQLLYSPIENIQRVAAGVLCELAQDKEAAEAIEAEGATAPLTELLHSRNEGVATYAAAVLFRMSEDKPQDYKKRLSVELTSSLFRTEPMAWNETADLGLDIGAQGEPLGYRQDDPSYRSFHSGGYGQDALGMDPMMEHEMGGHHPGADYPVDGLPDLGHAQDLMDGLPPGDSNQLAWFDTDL
UniProt Q9UJU2: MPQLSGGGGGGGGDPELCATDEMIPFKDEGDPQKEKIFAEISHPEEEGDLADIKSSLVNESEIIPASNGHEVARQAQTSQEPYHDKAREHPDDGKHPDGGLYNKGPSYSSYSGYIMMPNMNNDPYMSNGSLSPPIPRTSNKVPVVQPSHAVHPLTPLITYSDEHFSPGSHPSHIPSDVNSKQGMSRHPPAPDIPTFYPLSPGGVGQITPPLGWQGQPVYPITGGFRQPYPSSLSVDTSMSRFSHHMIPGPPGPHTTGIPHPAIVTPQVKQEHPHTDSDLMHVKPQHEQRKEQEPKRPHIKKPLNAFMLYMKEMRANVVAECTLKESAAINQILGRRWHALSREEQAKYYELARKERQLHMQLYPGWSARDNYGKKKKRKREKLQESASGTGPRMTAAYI

What was measured:
GST-HPIP (542–731) = target: T1, GST-HPIP (542–731) (UniProt Q96AQ6); assay: pull-down; GST or GST-HPIP fusion proteins on Sepharose (GST) beads incubated with lysates of OA chondrocytes expressing FLAG-LEF1; immunoblot of bound proteins; only the target purified
T1 sequence: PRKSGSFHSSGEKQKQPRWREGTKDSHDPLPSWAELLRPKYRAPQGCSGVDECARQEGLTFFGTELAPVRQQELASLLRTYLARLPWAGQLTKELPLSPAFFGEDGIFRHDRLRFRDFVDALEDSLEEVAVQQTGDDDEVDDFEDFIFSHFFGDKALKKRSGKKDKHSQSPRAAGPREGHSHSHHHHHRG

GST-HPIP (1–100) = target: T2, GST-HPIP (1–100) (UniProt Q96AQ6); assay: as above
T2 sequence: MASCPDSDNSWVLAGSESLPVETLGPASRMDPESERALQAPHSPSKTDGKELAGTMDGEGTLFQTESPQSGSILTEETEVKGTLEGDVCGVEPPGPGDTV

GST-HPIP (101–200) = target: T3, GST-HPIP (101–200) (UniProt Q96AQ6); assay: as above
T3 sequence: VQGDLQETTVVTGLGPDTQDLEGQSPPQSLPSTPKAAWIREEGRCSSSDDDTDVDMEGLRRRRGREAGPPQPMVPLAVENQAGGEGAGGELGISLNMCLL

GST-HPIP (221–361) = target: T4, GST-HPIP (221–361) (UniProt Q96AQ6); assay: as above
T4 sequence: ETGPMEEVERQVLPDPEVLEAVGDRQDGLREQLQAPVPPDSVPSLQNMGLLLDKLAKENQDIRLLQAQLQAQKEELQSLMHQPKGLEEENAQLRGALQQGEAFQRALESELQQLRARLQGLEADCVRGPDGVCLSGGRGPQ

[1] = target: β-catenin, endogenous (human (endogenous in chondrocytes)) (UniProt P35222); assay: co-IP; subcellular separation of chondrocytes into cytoplasmic and nuclear fractions, then immunoprecipitation of endogenous proteins
[2] = target: T5, hematopoietic pre-B cell leukemia transcription factor-interacting protein (HPIP), endogenous (human (endogenous in chondrocytes)) (UniProt Q96AQ6); assay: as above
T5 sequence: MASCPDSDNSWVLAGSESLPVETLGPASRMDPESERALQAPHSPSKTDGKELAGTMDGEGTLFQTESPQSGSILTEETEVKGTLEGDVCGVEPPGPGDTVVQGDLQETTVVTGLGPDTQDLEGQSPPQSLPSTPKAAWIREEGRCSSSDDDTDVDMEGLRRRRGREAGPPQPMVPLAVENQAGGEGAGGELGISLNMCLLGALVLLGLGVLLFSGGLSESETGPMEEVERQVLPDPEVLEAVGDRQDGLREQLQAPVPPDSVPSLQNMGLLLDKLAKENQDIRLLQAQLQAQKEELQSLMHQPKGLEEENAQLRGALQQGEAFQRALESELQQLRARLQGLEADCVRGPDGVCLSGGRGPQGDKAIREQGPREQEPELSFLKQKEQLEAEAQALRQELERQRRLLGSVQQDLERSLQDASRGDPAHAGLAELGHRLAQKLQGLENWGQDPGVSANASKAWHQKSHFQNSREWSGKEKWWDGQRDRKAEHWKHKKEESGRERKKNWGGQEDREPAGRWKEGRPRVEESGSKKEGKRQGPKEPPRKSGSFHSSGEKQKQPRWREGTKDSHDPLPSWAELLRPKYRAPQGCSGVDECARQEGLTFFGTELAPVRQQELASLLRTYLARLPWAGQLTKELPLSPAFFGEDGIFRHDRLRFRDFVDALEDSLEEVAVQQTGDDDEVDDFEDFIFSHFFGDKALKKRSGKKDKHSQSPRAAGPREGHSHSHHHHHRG

Substance: FLAG-tagged LEF1 (from UniProt Q9UJU2 1-399)
- binding (GST-HPIP (542–731)): no binding
- binding (GST-HPIP (1–100)): no binding
- binding (GST-HPIP (101–200)): no binding
- binding (GST-HPIP (221–361)): no binding

Substance: lymphoid enhancer binding factor 1 (LEF1), endogenous (from UniProt Q9UJU2 1-399)
- binding [1]: binds

Substance: β-catenin, endogenous (from UniProt P35222 1-781)
- binding [2]: binds
